In the supplement of paper PMC9446081 one finds relative growth data, which are given here for 59 molecules.

The whole screen tested about 39,000 compounds, of which about 220 (0.56%) showed activity. This is one part of the list.
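Further: static incubation at 37 °C against the wild-type strain, values averaged over two biological replicates.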

The experiment relates to Escherichia coli K-12 BW25113. In words: relative growth (OD600 normalised to plate interquartile mean) (fraction); higher = less growth inhibition, active = 0.2 or less. The note with it: 50 µM; LB; incubation time: overnight (16-24 h).
As to `CCCN(C)C[C@H]1OCCCC[C@H](C)Oc2ccc(NS(=O)(=O)c3cn(C)cn3)cc2C(=O)N([C@H](C)CO)C[C@H]1C`, the relative growth is inactive: 0.989.

For `C[C@@H]1CCCCO[C@@H](CN(C)S(=O)(=O)c2cccs2)[C@H](C)CN([C@@H](C)CO)C(=O)c2cc(NC(=O)C3CCCCC3)ccc2O1`, the relative growth is inactive: 0.968.

`CC1=NCCN1`: the relative growth is inactive: 0.997.

For the molecule `COc1ccc(S(=O)(=O)Nc2ccc3c(c2)C(=O)N([C@H](C)CO)C[C@H](C)[C@@H](CN(C)Cc2ccc(Cl)c(Cl)c2)OCCCC[C@H](C)O3)cc1`, the relative growth was inactive: 0.968.

For `CC(C)(C)OC(=O)C[C@@H]1CC=CC[C@H](CC(=O)NCCO)C(=O)NCCOC1=O`, the relative growth was inactive: 0.982.

Take `CO[C@H]1CN(C)C(=O)c2ccc(NS(C)(=O)=O)cc2OC[C@@H](C)N(C(=O)C2CCCCC2)C[C@H]1C`: the relative growth was inactive: 0.981.

Regarding `C[C@H](CO)N1C[C@H](C)[C@H](CN(C)Cc2ccncc2)Oc2ccc(NS(=O)(=O)c3cccs3)cc2CC1=O`, the relative growth was inactive: 0.97.

For `C[C@@H]1O[C@@H](OC[C@H]2O[C@@H](Oc3cc(O)c4c(c3)O[C@@H](c3ccc(O)cc3)CC4=O)[C@H](O)[C@@H](O)[C@@H]2O)[C@H](O)[C@H](O)[C@H]1O`, the relative growth was inactive: 1.

Take `Cn1cnc(S(=O)(=O)N[C@H]2C=C[C@@H](CC(=O)NCC3CC3)O[C@H]2CO)c1`: the relative growth was inactive: 0.988.

Take `Cc1ccc(S(=O)(=O)Nc2cccc3c2O[C@H](CN(C)Cc2ccc(Cl)c(Cl)c2)[C@@H](C)CN([C@H](C)CO)C3=O)cc1`: the relative growth is inactive: 1.05.

As for `Cc1noc(C)c1S(=O)(=O)N(C)C[C@H]1Oc2ccc(NC(=O)CCC(F)(F)F)cc2CC(=O)N([C@H](C)CO)C[C@@H]1C`, the relative growth is inactive: 0.996.

With `Cc1ccc(S(=O)(=O)Nc2cccc3c2O[C@H](CN(C)C(=O)Nc2ccc(C(F)(F)F)cc2)[C@H](C)CN([C@H](C)CO)C3=O)cc1`, the relative growth was inactive: 1.

Turning to `C[C@@H]1CN([C@H](C)CO)C(=O)c2cccc(NS(=O)(=O)c3cn(C)cn3)c2O[C@@H]1CN(C)S(=O)(=O)c1ccc(F)cc1`, the relative growth is inactive: 1.

Turning to `C[C@H]1CN([C@@H](C)CO)C(=O)c2cc(NC(=O)CCN3CCOCC3)ccc2O[C@H]1CN(C)S(=O)(=O)c1cn(C)cn1`, the relative growth was inactive: 1.04.

As to `CO[C@H](CN(C)S(=O)(=O)c1cccc(Cl)c1)[C@H](C)CN([C@H](C)CO)S(=O)(=O)c1ccc(Cl)cc1`, the relative growth was inactive: 1.04.

With `C[C@@H]1CCCCO[C@H](CN(C)S(=O)(=O)c2cn(C)cn2)[C@@H](C)CN([C@H](C)CO)C(=O)c2cc(NC(=O)Nc3ccc(C(F)(F)F)cc3)ccc2O1`, the relative growth is inactive: 1.02.

In the case of `C[C@H]1CCCCO[C@H](CN(C)Cc2ccncc2)[C@@H](C)CN([C@@H](C)CO)C(=O)c2cc(NC(=O)CCC(F)(F)F)ccc2O1`, the relative growth is inactive: 0.985.

For `Cc1ccc(S(=O)(=O)Nc2cccc3c2O[C@@H](CN(C)S(=O)(=O)c2cn(C)cn2)[C@@H](C)CN([C@H](C)CO)C3=O)cc1`, the relative growth was inactive: 0.987.

Turning to `CCS(=O)(=O)N1C[C@]2(C1)CN([C@H](CO)c1[nH]c3cc(ccc3c12)OC)C(=O)Nc1c(noc1C)C`, the relative growth is inactive: 0.988.

As to `O=c1[nH]c(=O)c2[nH]c(=O)[nH]c2[nH]1`, the relative growth was inactive: 0.999.

With `C[C@@H]1CCCCO[C@@H](CN(C)Cc2ccc(C(=O)Nc3ccccc3N)cc2)[C@@H](C)CN([C@H](C)CO)C(=O)c2cc(NC(=O)NC3CCCCC3)ccc2O1`, the relative growth was inactive: 1.

Regarding `C[C@@H]1CN([C@@H](C)CO)C(=O)c2cccc(NS(=O)(=O)c3cn(C)cn3)c2O[C@@H]1CN(C)CC1CC1`, the relative growth was inactive: 1.02.

Consider `O=C(C[C@@H]1C[C@H]2c3cc(NS(=O)(=O)c4ccc(F)cc4)ccc3O[C@H]2[C@@H](CO)O1)NCc1ccccn1`, for which the relative growth was inactive: 1.02.

As to `COc1ccc(S(=O)(=O)N(C)C[C@H]2Oc3ccc(NC(=O)NC(C)C)cc3CC(=O)N([C@H](C)CO)C[C@@H]2C)cc1`, the relative growth was inactive: 1.01.

Regarding `CS(=O)(=O)N(CC(=O)O)Cc1ccccc1`, the relative growth is inactive: 0.926.

Take `C=CC(=O)N1CC[C@@H](Oc2nc(Nc3ccc(N4CCC(N5CCN(C)CC5)CC4)cc3)c(C(N)=O)nc2CC)C1`: the relative growth is inactive: 1.03.

On to `COc1ccc(NC(=O)Nc2cccc3c2O[C@@H](CN(C)C(=O)Nc2cccc4ccccc24)[C@@H](C)CN([C@H](C)CO)C3=O)cc1`, for which the relative growth was inactive: 1.03.

With `CCCC#Cc1ccc2c(c1)O[C@@H](CN(C)S(=O)(=O)c1cccc(OC)c1)[C@@H](C)CN([C@H](C)CO)S2(=O)=O`, the relative growth was inactive: 1.02.

Regarding `COc1ccccc1CN1C(=O)c2ccccc2[C@@]2(Cc3ccccc3N(CC(F)(F)F)C2=O)[C@@H]1c1ccc(CO)cc1`, the relative growth was inactive: 1.03.

With `C[C@@H]1CN([C@H](C)CO)C(=O)c2cc(NS(=O)(=O)c3cn(C)cn3)ccc2O[C@@H](C)CCCCO[C@@H]1CN(C)Cc1ccc(C(F)(F)F)cc1`, the relative growth is inactive: 0.905.

`Cc1noc(C)c1S(=O)(=O)Nc1ccc2c(c1)C(=O)N([C@H](C)CO)C[C@H](C)[C@@H](CN(C)Cc1ccc(C(F)(F)F)cc1)OCCCC[C@@H](C)O2`: the relative growth is inactive: 1.02.

In the case of `C[C@H](NC(=O)N(C)C[C@@H]1OCc2ccccc2-c2c(n(C)c3ccccc23)C(=O)N([C@@H](C)CO)C[C@H]1C)c1ccccc1`, the relative growth is inactive: 0.986.

On to `COc1ccc(S(=O)(=O)N(C)C[C@@H]2Oc3ccc(NS(=O)(=O)c4ccc(C)cc4)cc3C(=O)N([C@H](C)CO)C[C@@H]2C)cc1`, for which the relative growth is inactive: 1.01.

As to `C[C@@H]1CCCCO[C@@H](CN(C)C(=O)c2ccncc2)[C@@H](C)CN([C@H](C)CO)C(=O)c2cc(NS(=O)(=O)c3ccc(Cl)cc3)ccc2O1`, the relative growth is inactive: 1.03.

In the case of `COc1ccc(NC(=O)N(C)C[C@@H]2Oc3ccc(NC(=O)Nc4cccc5ccccc45)cc3C(=O)N([C@@H](C)CO)C[C@H]2C)cc1`, the relative growth is inactive: 1.

On to `C[C@@H]1CN([C@H](C)CO)C(=O)c2cc(-c3cccnc3)cnc2O[C@@H]1CN(C)Cc1ccc(-c2ccccc2)cc1`, for which the relative growth is inactive: 1.01.

Take `NC[C@H](c1cccs1)N1CCCCCC1`: the relative growth is inactive: 1.04.

For `C[C@H](CO)N1C[C@H](C)[C@H](CN(C)S(=O)(=O)c2ccc(F)cc2)OCCCC[C@H](C)Oc2ccc(NC(=O)C3CCCCC3)cc2C1=O`, the relative growth was inactive: 1.02.

As to `Cc1noc(C)c1NC(=O)N(C)C[C@@H]1OCCCC[C@H](C)Oc2ccc(NC(=O)NC3CCCCC3)cc2C(=O)N([C@H](C)CO)C[C@@H]1C`, the relative growth is inactive: 1.

Take `C[C@@H]1CN([C@@H](C)CO)C(=O)c2cc(NC(=O)NC3CCCCC3)ccc2O[C@@H](C)CCCCO[C@H]1CN(C)Cc1ccncc1`: the relative growth is inactive: 1.02.

As for `CCN1CCN(C(=O)NC(C(=O)NC2C(=O)N3C(C(=O)O)=C(CSc4nnnn4C)CSC23)c2ccc(O)cc2)C(=O)C1=O` (centres undefined), the relative growth was active: 0.046.

As to `C[C@@H]1CN([C@H](C)CO)C(=O)c2c(c3ccccc3n2C)-c2ccccc2CO[C@@H]1CN(C)C(=O)c1cc(Cl)cc(Cl)c1`, the relative growth was inactive: 1.04.

`c1ccc(CCN2CCNCC2)nc1`: the relative growth is inactive: 0.997.

On to `O=C(C[C@@H]1CC[C@H]2[C@@H](COC[C@@H](O)CN2S(=O)(=O)c2ccccc2)O1)N[C@H]1CCN(Cc2ccccc2)C1`, for which the relative growth was inactive: 0.997.

In the case of `CC(=O)c1ccc(F)c(Cl)c1`, the relative growth is inactive: 0.998.

Regarding `Cc1noc(C)c1NC(=O)N(C)C[C@H]1Oc2ccc(NC(=O)CCN3CCOCC3)cc2C(=O)N([C@@H](C)CO)C[C@H]1C`, the relative growth was inactive: 0.953.

As to `COc1ccc(C(=O)CO)cc1`, the relative growth is inactive: 0.993.

Take `C[C@@H]1CN([C@H](C)CO)C(=O)c2cccc(NC(=O)c3ccncc3)c2O[C@H]1CN(C)Cc1ccc(-c2ccccc2)cc1`: the relative growth was inactive: 1.01.

Take `CC(C)(C)[S@](=O)N1Cc2cc(C(=O)N[C@@H]3CCN(Cc4ccccc4)C3)nc(-c3cccc(-c4cccnc4)c3)c2[C@@H]1CCO`: the relative growth is inactive: 0.98.

With `O=C(C[C@@H]1CC[C@@H]2[C@H](COC[C@@H](O)CN2C(=O)C2CC2)O1)NCc1ccncc1`, the relative growth was inactive: 1.

Regarding `COc1ccccc1C#Cc1ccc2c(c1)O[C@H](CN(C)Cc1cccnc1)[C@@H](C)CN([C@H](C)CO)S2(=O)=O`, the relative growth is inactive: 1.01.

As to `C[C@@H]1CN([C@H](C)CO)C(=O)c2cccc(NC(=O)C3CC3)c2O[C@H]1CN(C)S(=O)(=O)c1ccc(Cl)cc1`, the relative growth is inactive: 1.01.

Regarding `C[C@H]1CN([C@@H](C)CO)S(=O)(=O)c2ccc(-c3cncnc3)cc2O[C@@H]1CN(C)C(=O)NC1CCCC1`, the relative growth was inactive: 1.

Turning to `C[C@@H]1CCCCO[C@H](CN(C)Cc2ccc(C(=O)O)cc2)[C@H](C)CN([C@@H](C)CO)C(=O)c2cc(NC(=O)C3CCCCC3)ccc2O1`, the relative growth is inactive: 1.01.

Regarding `COc1cccc(C#Cc2ccc3c(c2)O[C@H](CN(C)C(=O)CN2CCOCC2)[C@H](C)CN([C@H](C)CO)S3(=O)=O)c1`, the relative growth was inactive: 0.901.

For `C[C@H](CO)N1C[C@H](C)[C@H](CN(C)Cc2ccc(-c3ccccc3)cc2)Oc2ccc(NS(=O)(=O)c3cccs3)cc2CC1=O`, the relative growth is inactive: 1.03.

Consider `Cc1ccc(S(=O)(=O)Nc2ccc3c(c2)C(=O)N([C@@H](C)CO)C[C@H](C)[C@H](CN(C)C(=O)CCC(F)(F)F)OCCCC[C@H](C)O3)cc1`, for which the relative growth was inactive: 0.883.

For the molecule `C[C@@H]1CCCCO[C@@H](CN(C)C(=O)Nc2ccc(C(F)(F)F)cc2)[C@@H](C)CN([C@H](C)CO)C(=O)c2cc(NS(=O)(=O)c3ccccc3)ccc2O1`, the relative growth was inactive: 0.996.

`O=C(O)C[C@H](O)C(=O)O`: the relative growth was inactive: 0.979.
